Among all 410,000 compounds or so, about 6,400 (1.6%) were called active. This list was built around the results that the source calls inconclusive (neither active nor inactive); the mix of calls is not that of the screen. The call rests on the fitted dose curve; in most records, active means well fitted inhibition curve with a large enough effect; inconclusive means small, poorly fitted or top-dose-only effect; inactive means no such curve, though single readings can be large or run the other way. Potencies of inconclusive entries are left out as doubtful fits.
Each compound was assayed against Glucagon-like peptide 1 receptor (Homo sapiens) (UniProt P43220) (assay: qHTS of GLP-1 Receptor Inverse Agonists (Inhibition Mode)). Conditions: HEK293 GLP-1R CRE-luciferase, luminescence, 24 h, GLP-1R form is constitutively active; activity change, negative = inhibition: at 38.3 µM (top of the series) unless noted.
UniProt P43220, sequence (P43220 whole entry, looked up): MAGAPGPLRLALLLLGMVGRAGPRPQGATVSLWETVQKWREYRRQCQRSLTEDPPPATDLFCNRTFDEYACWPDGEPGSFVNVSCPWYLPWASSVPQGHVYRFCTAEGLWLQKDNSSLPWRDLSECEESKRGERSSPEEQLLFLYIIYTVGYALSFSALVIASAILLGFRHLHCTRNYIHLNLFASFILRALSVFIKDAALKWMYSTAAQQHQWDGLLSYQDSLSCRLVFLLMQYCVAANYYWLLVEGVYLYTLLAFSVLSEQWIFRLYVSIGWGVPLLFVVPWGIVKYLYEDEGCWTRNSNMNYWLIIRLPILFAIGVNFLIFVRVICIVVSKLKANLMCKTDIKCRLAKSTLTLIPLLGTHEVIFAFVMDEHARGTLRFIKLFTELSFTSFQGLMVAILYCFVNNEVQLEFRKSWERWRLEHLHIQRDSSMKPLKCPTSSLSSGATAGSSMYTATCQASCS
Outline: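 Readout was luciferase luminescence, measured 12 min after detection reagent at room temperature. Beforehand, GLP-1R reporter HEK293 cells had sat 12 h, then received compounds for 24 hr at 37 deg C.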
In the case of O=C(NCc1ccc2c(c1)OCO2)c1ccc2c(c1)N(Cc1ccccc1F)C(=O)c1ccccc1S2, the “activity change, negative = inhibition” value was inactive: -17.2%.
COc1cccc(S(=O)(=O)N(C)C[C@@H]2OCc3cn(nn3)CCCC(=O)N([C@H](C)CO)C[C@H]2C)c1 was tested, and the “activity change, negative = inhibition” value was inactive: 7.09%.
In the case of CCCn1cnc2cc(NC(=O)c3ccco3)ccc21, the Potency was inconclusive [inhibitor, partial curve, poor fit].
With CCc1ccccc1NC(=O)CN(c1ccccc1)S(=O)(=O)c1ccsc1C(=O)OC the “activity change, negative = inhibition” value was inactive: -21.7%.
With Cc1ccccc1CN1C(=O)c2ccccc2S(=O)c2ccc(C(=O)NCc3ccc(Cl)cc3)cc21 (configuration not stated) the “activity change, negative = inhibition” value was inactive: -21.4%.
For CCC(=O)C1=C(c2ccc(F)cc2)N(C(=O)CC)n2cnnc2S1, the “activity change, negative = inhibition” value was inactive: -28.5%.
COc1ccccc1N1CCN(CC(O)c2ccc3cc[nH]c3c2)CC1 (configuration not stated) was tested, and the Potency was inconclusive [inhibitor, single point].
With CC(C)c1ccc(NC(=O)C2(C)Cc3c(-c4ccc(C(N)=O)cc4)ccnc3O2)cc1 (configuration not stated) the “activity change, negative = inhibition” value was inactive: -15%.
In the case of O=C(CCCN1CCN(c2ccccc2)CC1)c1ccc(F)cc1, the “activity change, negative = inhibition” value was inactive: 12.7%.
For COc1ccc(S(=O)(=O)N(C)C[C@@H]2Oc3cc(C#CC4CCCCC4)ccc3S(=O)(=O)N([C@@H](C)CO)C[C@@H]2C)cc1, the Potency was inconclusive [inhibitor, single point].
With CCCOc1ccc(-c2cccc(NS(=O)(=O)c3ccccc3)c2)nn1 the Potency was inconclusive [inhibitor, single point].
Cc1ccc([N+](=O)[O-])c(OCCCN2CCC(Cc3ccccc3)CC2)c1 was tested, and the Potency was inconclusive [inhibitor, single point].
With CSc1nc(N(CCO)CCO)c2sc3nc(-c4ccco4)c4c(c3c2n1)CCC4 the Potency was inconclusive [inhibitor, single point].
In the case of C/C(=C\C(=O)c1ccc(Br)cc1)NCc1ccc(C)cc1, the Potency was inconclusive [inhibitor, single point].
With COC(=O)c1c(NC(=O)c2ccc(S(=O)(=O)N3CCOCC3)cc2)sc2c1CCN(C)C2 the Potency was inconclusive [inhibitor, partial curve, poor fit].
With Cc1ccccc1CNC(=O)c1ccc2nc(SCc3ccc(F)cc3)n(C)c2c1 the Potency was inconclusive [inhibitor, single point].
With CCc1ccccc1NC(=O)Cn1cc(S(=O)(=O)N2CCCC2)c(S(=O)(=O)N2CCCC2)c1 the “activity change, negative = inhibition” value was inactive: 10.7%.
With Cc1ccc(NC(=O)CN(C)C(=O)Cc2ccc(Cl)c(Cl)c2)cc1 the Potency was active: 7.94 µM.
In the case of Cc1ccc2c(c1)N(C(=O)CCC(=O)NCCCN1CCC(Cc3ccccc3)CC1)CCO2, the Potency was inconclusive [inhibitor, single point].
With CCOc1ccc(C=NN2CCCCCC2)cc1OCC the Potency was inconclusive [inhibitor, single point].
In the case of CC(=O)OCC=C1CCC2C3CC(C)C4=CC(=O)CCC4(C)C3C(O)CC12C (configuration not stated), the Potency was inconclusive [inhibitor, single point].
In the case of O=C(c1cccc(N2CCCC2=O)c1)N1CCN(c2ccc(F)cc2)CC1, the Potency was inconclusive [inhibitor, full curve, poor fit].
CCN(CC)c1ccc(/C=N/N2CCN(Cc3ccccc3)CC2)cc1 was tested, and the Potency was inconclusive [inhibitor, partial curve, poor fit].
With O=C(Nc1ccncc1)Nc1cccc(Cl)c1 the Potency was inconclusive [inhibitor, single point].
CC1=Nc2ccccc2N=C(NC(=O)CSC(=S)N2CCCCC2)C1c1ccccc1 (configuration not stated) was tested, and the Potency was inconclusive [inhibitor, partial curve].
COc1ccc(-c2c(C)nc3c(-c4ccccn4)cnn3c2N)cc1 was tested, and the Potency was inconclusive [inhibitor, single point].
With CCOc1cc(CNc2ccc3c(c2)CCC3)ccc1O the Potency was inconclusive [inhibitor, single point].
COc1ccc2c(Cl)c(C(=O)N/N=C/c3c(C)[nH]c4ccccc34)sc2c1 was tested, and the Potency was inconclusive [inhibitor, single point].
CCC(C)[C@H]1COCCS(=O)(=O)N1Cc1ccccc1F (some centres not stated) was tested, and the Potency was inconclusive [inhibitor, single point].
In the case of CCOC(=O)c1c(-n2cccc2)sc2c1CCCC2=O, the Potency was inconclusive [inhibitor, partial curve, poor fit].
In the case of O=C(Cc1ccc(F)cc1)Nc1nc(-c2ccc(F)c(F)c2)cs1, the Potency was inconclusive [inhibitor, partial curve, poor fit].
For Cc1ccc([C@H]2C[C@H](O)[C@@H](n3cc(C4CC4)nn3)CN2CC2CCCCC2)cc1, the Potency was inconclusive [inhibitor, single point].
In the case of CN1c2ccsc2/C(=N/Nc2ccccc2)CS1(=O)=O, the Potency was inconclusive [inhibitor, single point].
In the case of CC(C)(C)c1ccc(-c2nc(NC(=O)CSc3ncnc4sc5c(c34)CCCC5)ns2)cc1, the “activity change, negative = inhibition” value was inactive: 0.157%.
With Fc1ccc(-c2nc3c4ccccc4ccn3c2Cc2ccccc2C(F)(F)F)cc1 the Potency was inconclusive [inhibitor, single point].
For CCCCOc1ccc(C(=O)N(Cc2ccc(N(C)C)cc2)Cc2ccco2)cc1, the Potency was inconclusive [inhibitor, partial curve, poor fit].
For CC(=O)c1cc(F)c(N2CCN(C(=O)COc3ccccc3F)CC2)cc1C, the Potency was inconclusive [inhibitor, partial curve, poor fit].
With Cc1cccc(NC(=O)CSc2nc3ccc(NC(=O)c4ccccc4)cc3s2)c1 the “activity change, negative = inhibition” value was inactive: -26.5%.
For c1ccc2sc(-c3ccncc3)nc2c1, the “activity change, negative = inhibition” value was inactive: 59.3%.
With CCc1ccc(-c2nc(CSCC(=O)NCc3ccco3)c(C)o2)cc1 the Potency was inconclusive [inhibitor, partial curve, poor fit].
With COc1cc(NC(=O)Cn2c(=O)cc(C)c3c(C)nn(-c4ccc(C)cc4)c32)cc(OC)c1 the “activity change, negative = inhibition” value was inactive: 28%.
COc1ccc(NC(=O)N(C)C[C@H]2Oc3ccc(NC(=O)Nc4ccc(C(F)(F)F)cc4)cc3C(=O)N([C@H](C)CO)C[C@@H]2C)cc1 was tested, and the Potency was inconclusive [inhibitor, single point].
Further: nearly all actives have a fitted effect of over 55% in size.
On the % scale 0 is the no-effect control and ±100 the full control effect; potency means the concentration at half of the fitted maximal effect; tags describe the fitted curve by direction and shape.
